Measured values taken from PMC12803952.
Where a chain is given by its changes, count along the chain named. No constants are given. Whether binding was seen depends on the method and setting. In cells and extracts the contact can be indirect. Some results given as binding are weak or reduced against the parent protein; the word gives no strength. For some assays here: Tags and fused reporters may be left off the sequences shown. Each block holds one binder with its values, some of them ahead of it.

Key:
[1] = molecular target: CK1α (human (endogenous in U2OS)), P48729; experiment: co-IP; anti-CK1α antibody-coupled Sepharose beads, IP of endogenous CK1α from clarified lysates of mitotic (STLC 5 μM, 16 h) U2OS cells: WT, or HMMR−/− restored with HMMR-GFP or ΔE4-GFP; lysis buffer 50 mM Tris-HCl pH 7.5, 150 mM NaCl, 1 mM EDTA, 1% Triton-X; overnight at 4°C; western blot; details: remark: other sources report otherwise
HMMR-GFP (human) = molecular target: T1, HMMR-GFP (human) (UniProt O75330); experiment: co-IP; GFP nanobody on Sepharose, IP of HMMR-GFP variants restored in HMMR−/− U2OS cells, asynchronous or mitotic (STLC 5 μM, 16 h); western blot
T1 sequence: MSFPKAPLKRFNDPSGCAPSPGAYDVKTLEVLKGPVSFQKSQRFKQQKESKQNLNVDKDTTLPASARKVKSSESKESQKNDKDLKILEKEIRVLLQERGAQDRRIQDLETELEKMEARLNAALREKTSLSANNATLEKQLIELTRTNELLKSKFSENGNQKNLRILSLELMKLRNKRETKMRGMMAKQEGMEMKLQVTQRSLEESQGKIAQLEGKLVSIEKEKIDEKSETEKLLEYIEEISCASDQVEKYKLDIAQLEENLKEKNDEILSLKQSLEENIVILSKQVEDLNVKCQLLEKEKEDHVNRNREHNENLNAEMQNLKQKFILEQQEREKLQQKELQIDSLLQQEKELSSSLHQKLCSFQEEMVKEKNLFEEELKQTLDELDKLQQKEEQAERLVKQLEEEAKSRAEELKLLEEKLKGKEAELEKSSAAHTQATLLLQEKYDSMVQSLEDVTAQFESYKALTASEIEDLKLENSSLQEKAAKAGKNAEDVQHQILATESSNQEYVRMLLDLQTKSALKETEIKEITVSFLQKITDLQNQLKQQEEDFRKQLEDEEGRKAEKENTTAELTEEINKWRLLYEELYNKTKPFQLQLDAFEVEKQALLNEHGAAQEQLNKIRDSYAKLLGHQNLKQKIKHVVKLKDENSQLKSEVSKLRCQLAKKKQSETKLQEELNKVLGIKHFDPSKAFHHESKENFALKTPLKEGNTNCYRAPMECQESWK

[2] = molecular target: CK1α (human (endogenous in U2OS)) (UniProt P48729); experiment: co-IP; as a1, but HMMR−/− U2OS cells (CRISPR knockout, not restored), asynchronous or STLC-arrested
[3] = molecular target: CK1α (human (endogenous in U2OS)) (UniProt P48729); experiment: condition: only asynchronous cells (no mitotic arrest); co-IP; as a1, but asynchronous WT U2OS cells (no STLC arrest)
SACK1D-GFP (human) = molecular target: T2, SACK1D-GFP (human) (UniProt Q9H4H8); experiment: co-IP; GFP nanobody on Sepharose, IP of SACK1D-GFP variants from lysates of SACK1D−/− U2OS cells, asynchronous or mitotic (STLC 5 μM, 16 h); overnight at 4°C; western blot
T2 sequence: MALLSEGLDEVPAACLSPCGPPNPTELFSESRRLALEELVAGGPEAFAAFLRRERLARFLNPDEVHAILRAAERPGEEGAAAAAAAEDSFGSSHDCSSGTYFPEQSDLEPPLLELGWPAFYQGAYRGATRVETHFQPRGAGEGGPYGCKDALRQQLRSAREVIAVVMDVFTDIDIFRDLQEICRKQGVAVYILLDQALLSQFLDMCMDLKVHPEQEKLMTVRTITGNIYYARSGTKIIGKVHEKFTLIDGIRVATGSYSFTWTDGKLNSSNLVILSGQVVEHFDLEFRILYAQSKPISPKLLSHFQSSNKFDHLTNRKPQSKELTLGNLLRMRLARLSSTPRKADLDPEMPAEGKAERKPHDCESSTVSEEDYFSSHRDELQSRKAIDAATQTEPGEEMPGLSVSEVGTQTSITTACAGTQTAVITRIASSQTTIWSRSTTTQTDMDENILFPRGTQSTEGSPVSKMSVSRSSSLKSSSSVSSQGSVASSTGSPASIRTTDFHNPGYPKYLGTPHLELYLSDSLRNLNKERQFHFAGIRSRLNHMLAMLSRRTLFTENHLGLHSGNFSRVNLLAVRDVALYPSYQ

[4] = molecular target: T3, SACK1D^M545A,L546A,M548A,L549A-GFP (human) (UniProt Q9H4H8); experiment: as above
T3 sequence: T2 sequence with M545A, L546A, M548A, L549A

SACK1D^1-514-GFP (human) = molecular target: T4, SACK1D^1-514-GFP (human) (UniProt Q9H4H8); experiment: as above
T4 sequence: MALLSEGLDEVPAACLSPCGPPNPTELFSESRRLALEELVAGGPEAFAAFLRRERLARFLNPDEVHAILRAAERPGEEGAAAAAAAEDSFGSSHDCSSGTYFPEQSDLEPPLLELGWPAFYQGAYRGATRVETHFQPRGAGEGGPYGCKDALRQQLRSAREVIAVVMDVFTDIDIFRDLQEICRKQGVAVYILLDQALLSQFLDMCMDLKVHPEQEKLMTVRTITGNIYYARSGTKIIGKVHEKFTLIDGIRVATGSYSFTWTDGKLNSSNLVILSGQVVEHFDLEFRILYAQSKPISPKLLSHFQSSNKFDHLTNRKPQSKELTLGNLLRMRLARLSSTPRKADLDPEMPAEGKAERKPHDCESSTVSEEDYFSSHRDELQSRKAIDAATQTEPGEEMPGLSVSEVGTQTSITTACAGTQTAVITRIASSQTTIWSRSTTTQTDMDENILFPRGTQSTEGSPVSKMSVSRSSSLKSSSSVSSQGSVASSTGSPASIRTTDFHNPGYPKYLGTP

[5] = molecular target: T5, SACK1D-GFP (human), Q9H4H8; experiment: as above; details: remark: other sources report otherwise
T5 chain: T2 sequence

B2: Scaffold Anchor of CK1 (SACK1) domain-containing protein D (protein, UniProt Q9H4H8 1-585)
chain: T2 sequence
binding (HMMR-GFP (human)): binds | binding [2]: no binding (condition: in HMMR−/− U2OS cells) | binding [3]: no binding

B4: CK1α, P48729 1-337 (enzyme)
chain: MASSSGSKAEFIVGGKYKLVRKIGSGSFGDIYLAINITNGEEVAVKLESQKARHPQLLYESKLYKILQGGVGIPHIRWYGQEKDYNVLVMDLLGPSLEDLFNFCSRRFTMKTVLMLADQMISRIEYVHTKNFIHRDIKPDNFLMGIGRHCNKLFLIDFGLAKKYRDNRTRQHIPYREDKNLTGTARYASINAHLGIEQSRRDDMESLGYVLMYFNRTSLPWQGLKAATKKQKYEKISEKKMSTPVEVLCKGFPAEFAMYLNYCRGLRFEEAPDYMYLRQLFRILFRTLNHQYDYTFDWTMLKQKAAQQAASSSGQGQQAQTPTGKQTDKTKSNMKGF
binding [5]: binds

Next, values leading:

binding [1]: binds
B1: Scaffold Anchor of CK1 (SACK1) domain-containing protein D, Q9H4H8 1-585 (protein)
chain: T2 sequence

binding (SACK1D-GFP (human)): binds | binding [4]: no binding | binding (SACK1D^1-514-GFP (human)): no binding
B3: hyaluronan-mediated motility receptor (protein, UniProt O75330 1-724)
chain: T1 sequence
